# The supplement of paper PMC8728848
# This is one part of the list.
# B1: EPL1 (Trichoderma atroviride), A0PCX2 (protein)
# chain: MQLSNLFKLALFTAAVSADTVSYDTGYDDASRSLTVVSCSDGTNGLITRYHWQTQGQIPRFPYIGGAQAVAGWNSPNCGTCWKLTYSGKTIYVLAIDHTAAGFNIGLDAMNALTNGNAVALGRVSATASQVAVSNCGL
# Columns and labels:
# Assay in all cases: glycan array binding signal (z-score within array); higher = stronger binding
# Settings in all cases: glycan notation: IUPAC condensed, linker removed
# [1] = molecular target: Neu5Ac(a2-6)Gal(b1-4)GlcNAc(b1-2)Man(a1-3)[Man(a1-6)]Man(b1-4)GlcNAc(b1-4)GlcNAc
# Method in brief: (§1)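 Arrays were curated from the Consortium for Functional Glycomics database, 3228 in total, and kept only where the protein sequence was available. Binding is expressed as a within-array Z-score. This score was averaged across arrays of the same protein sequence at different concentrations or buffers and across linkers, and negative values can be read as non-binding.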
# [2] = molecular target: Neu5Ac(a2-6)Gal(b1-4)GlcNAc(b1-2)Man(a1-3)[Neu5Ac(a2-3)Gal(b1-4)GlcNAc(b1-2)Man(a1-6)]Man(b1-4)GlcNAc(b1-4)GlcNAc
# Method in brief: as §1
# [3] = molecular target: Neu5Ac(a2-6)Gal(b1-4)GlcNAc(b1-2)Man(a1-3)[Neu5Ac(a2-6)Gal(b1-4)GlcNAc(b1-2)Man(a1-6)]Man(b1-4)GlcNAc(b1-4)GlcNAc
# Method in brief: as §1
# [4] = molecular target: Neu5Ac(a2-6)Gal(b1-4)GlcNAc(b1-2)Man(a1-3)[Neu5Ac(a2-6)Gal(b1-4)GlcNAc(b1-2)Man(a1-6)]Man(b1-4)GlcNAc(b1-4)[Fuc(a1-6)]GlcNAc
# Method in brief: as §1
# [5] = molecular target: Neu5Ac(a2-6)Gal(b1-4)GlcNAc(b1-2)Man(a1-6)Man(b1-4)GlcNAc(b1-4)GlcNAc
# Method in brief: as §1
# [6] = molecular target: Neu5Ac(a2-6)Gal(b1-4)GlcNAc(b1-2)Man(a1-6)[Gal(b1-4)GlcNAc(b1-2)Man(a1-3)]Man(b1-4)GlcNAc(b1-4)GlcNAc
# Method in brief: as §1
# [7] = molecular target: Neu5Ac(a2-6)Gal(b1-4)GlcNAc(b1-2)Man(a1-6)[GlcNAc(b1-2)Man(a1-3)]Man(b1-4)GlcNAc(b1-4)GlcNAc
# Method in brief: as §1
# [8] = molecular target: Neu5Ac(a2-6)Gal(b1-4)GlcNAc(b1-2)Man(a1-6)[Man(a1-3)]Man(b1-4)GlcNAc(b1-4)GlcNAc
# Method in brief: as §1
# [9] = molecular target: Neu5Ac(a2-6)Gal(b1-4)GlcNAc(b1-2)[Neu5Ac(a2-6)Gal(b1-4)GlcNAc(b1-4)]Man(a1-3)[GlcNAc(b1-4)][Neu5Ac(a2-6)Gal(b1-4)GlcNAc(b1-2)[Neu5Ac(a2-6)Gal(b1-4)GlcNAc(b1-6)]Man(a1-6)]Man(b1-4)GlcNAc(b1-4)GlcNAc
# Method in brief: as §1
# [10] = molecular target: Neu5Ac(a2-6)Gal(b1-4)GlcNAc(b1-2)[Neu5Ac(a2-6)Gal(b1-4)GlcNAc(b1-4)]Man(a1-3)[GlcNAc(b1-4)][Neu5Ac(a2-6)Gal(b1-4)GlcNAc(b1-4)Man(a1-6)]Man(b1-4)GlcNAc(b1-4)GlcNAc
# Method in brief: as §1
# [11] = molecular target: Neu5Ac(a2-6)Gal(b1-4)GlcNAc(b1-2)[Neu5Ac(a2-6)Gal(b1-4)GlcNAc(b1-6)]Man(a1-6)[Neu5Ac(a2-6)Gal(b1-4)GlcNAc(b1-2)Man(a1-3)][GlcNAc(b1-4)]Man(b1-4)GlcNAc(b1-4)GlcNAc
# Method in brief: as §1
# [12] = molecular target: Neu5Ac(a2-6)Gal(b1-4)GlcNAc(b1-3)Gal(b1-3)GlcNAc
# Method in brief: as §1
# [13] = molecular target: Neu5Ac(a2-6)Gal(b1-4)GlcNAc(b1-3)Gal(b1-4)GlcNAc
# Method in brief: as §1
# [14] = molecular target: Neu5Ac(a2-6)Gal(b1-4)GlcNAc(b1-3)Gal(b1-4)GlcNAc(b1-2)Man(a1-3)[Neu5Ac(a2-6)Gal(b1-4)GlcNAc(b1-3)Gal(b1-4)GlcNAc(b1-2)Man(a1-6)]GalNAc
# Method in brief: as §1
# [15] = molecular target: Neu5Ac(a2-6)Gal(b1-4)GlcNAc(b1-3)Gal(b1-4)GlcNAc(b1-3)Gal(b1-4)GlcNAc
# Method in brief: as §1
# [16] = molecular target: Neu5Ac(a2-6)Gal(b1-4)GlcNAc(b1-3)Gal(b1-4)GlcNAc(b1-3)Gal(b1-4)GlcNAc(b1-2)Man(a1-3)[Neu5Ac(a2-6)Gal(b1-4)GlcNAc(b1-3)Gal(b1-4)GlcNAc(b1-3)Gal(b1-4)GlcNAc(b1-2)Man(a1-6)]GalNAc
# Method in brief: as §1
# [17] = molecular target: Neu5Ac(a2-6)Gal(b1-4)GlcNAc(b1-3)Gal(b1-4)GlcNAc(b1-3)GalNAc
# Method in brief: as §1
# [18] = molecular target: Neu5Ac(a2-6)Gal(b1-4)GlcNAc(b1-3)Gal(b1-4)GlcNAc(b1-3)[Neu5Ac(a2-6)Gal(b1-4)GlcNAc(b1-3)Gal(b1-4)GlcNAc(b1-6)]GalNAc
# Method in brief: as §1
# [19] = molecular target: Neu5Ac(a2-6)Gal(b1-4)GlcNAc(b1-3)Gal(b1-4)GlcNAc(b1-6)[Gal(b1-3)]GalNAc
# Method in brief: as §1
# [20] = molecular target: Neu5Ac(a2-6)Gal(b1-4)GlcNAc(b1-3)Gal(b1-4)[Fuc(a1-3)]GlcNAc(b1-3)Gal(b1-4)[Fuc(a1-3)]GlcNAc
# Method in brief: as §1
# [21] = molecular target: Neu5Ac(a2-6)Gal(b1-4)GlcNAc(b1-3)GalNAc
# Method in brief: as §1
# [22] = molecular target: Neu5Ac(a2-6)Gal(b1-4)GlcNAc(b1-3)[Neu5Ac(a2-6)Gal(b1-4)GlcNAc(b1-6)]GalNAc
# Method in brief: as §1
# [23] = molecular target: Neu5Ac(a2-6)Gal(b1-4)GlcNAc(b1-6)GalNAc
# Method in brief: as §1
# [24] = molecular target: Neu5Ac(a2-6)Gal(b1-4)GlcNAc(b1-6)[Gal(b1-3)GlcNAc(b1-3)]Gal(b1-4)Glc
# Method in brief: as §1
# [25] = molecular target: Neu5Ac(a2-6)Gal(b1-4)GlcNAc(b1-6)[Gal(b1-3)]GalNAc
# Method in brief: as §1
# [26] = molecular target: Neu5Ac(a2-6)Gal(b1-4)GlcNAc6S
# Method in brief: as §1
# Neu5Ac(a2-6)GalNAc = molecular target: Neu5Ac(a2-6)GalNAc
# Method in brief: as §1
# [27] = molecular target: Neu5Ac(a2-6)GalNAc(b1-4)GlcNAc
# Method in brief: as §1
# [28] = molecular target: Neu5Ac(a2-6)GalNAc(b1-4)GlcNAc6S
# Method in brief: as §1
# [29] = molecular target: Neu5Ac(a2-6)GlcNAc(b1-4)GlcNAc
# Method in brief: as §1
# [30] = molecular target: Neu5Ac(a2-6)GlcNAc(b1-4)GlcNAc(b1-4)GlcNAc
# Method in brief: as §1
binder,measurement,setting,value
B1,glycan array binding signal (z-score),[1],-0.027
same,glycan array binding signal (z-score),[2],0.051
same,glycan array binding signal (z-score),[3],-0.013
same,glycan array binding signal (z-score),[4],0.022
same,glycan array binding signal (z-score),[5],-0.237
same,glycan array binding signal (z-score),[6],-0.305
same,glycan array binding signal (z-score),[7],-0.056
same,glycan array binding signal (z-score),[8],-0.436
same,glycan array binding signal (z-score),[9],-0.583
same,glycan array binding signal (z-score),[10],-0.299
same,glycan array binding signal (z-score),[11],-0.079
same,glycan array binding signal (z-score),[12],-0.53
same,glycan array binding signal (z-score),[13],-0.247
same,glycan array binding signal (z-score),[14],-0.089
same,glycan array binding signal (z-score),[15],-0.13
same,glycan array binding signal (z-score),[16],0.008
same,glycan array binding signal (z-score),[17],0.182
same,glycan array binding signal (z-score),[18],0.102
same,glycan array binding signal (z-score),[19],0.052
same,glycan array binding signal (z-score),[20],-0.291
same,glycan array binding signal (z-score),[21],-0.416
same,glycan array binding signal (z-score),[22],-0.474
same,glycan array binding signal (z-score),[23],-0.487
same,glycan array binding signal (z-score),[24],-0.453
same,glycan array binding signal (z-score),[25],-0.255
same,glycan array binding signal (z-score),[26],0.855
same,glycan array binding signal (z-score),Neu5Ac(a2-6)GalNAc,-0.036
same,glycan array binding signal (z-score),[27],-0.393
same,glycan array binding signal (z-score),[28],-0.356
same,glycan array binding signal (z-score),[29],-0.132
same,glycan array binding signal (z-score),[30],-0.416
